Reference: PubChem BioAssay (Tox21)
Values joined by “and” are separate entries in the source; they are usually repeats but may differ in a detail not shown here. Identical values can stand only once. Inconclusive means that the source gave no clear call. Such entries were picked first, then a sample of the others. Potencies beside an inconclusive call are fits to weak or partial responses and may not hold up. The source holds several records for some structures; these can differ, active in one and inactive in another. Active and inactive are the calls of the source. Calls come from the whole dose curve; as a rule, active = well fitted cell-killing curve with a large enough effect in the repeat runs; inconclusive = weak or mixed curves; inactive = no such curve, though single readings can be large or run the other way.

assay: qHTS assay for identifying genotoxic compounds that show differential cytotoxicity against isogenic chicken DT40 cell lines with known DNA damage response pathways - Rad54/Ku70 mutant cell line (AID 743015); conditions: DT40 Rad54/Ku70 mutant viability, CellTiter-Glo, 40 h; activity change, negative = cytotoxicity: at 66.8 µM (top of the series); note: nearly all actives have a fitted effect of over 60% in size
Description: National Center for Advancing Translational Sciences [NCATS]
NIH Chemical Genomics Center [NCGC]
U.S. Environmental Protection Agency [EPA]
National Institutes of Environmental Health Sciences [NIEHS]
National Toxicology Program [NTP]
U.S. Food and Drug Administration [FDA]
DNA repair pathways play a critical role in cellular homeostasis by repairing DNA damage induced by endogenous processes and xenobiotics. Isogenic chicken DT40 cell lines deficient in different DNA repair pathways can be used to identify genotoxic compounds and aid in characterizing the nature of the DNA damage induced. Two DNA repair-deficient cell lines with disrupted genes, Rad54/Ku70 or Rev3, were used to screen the Tox21 10K compound library. Possible genotoxicity was based on the presence of a significant increase in cytotoxicity in one or more of the DNA repair-deficient cell lines compared to that observed in the parental DNA repair-proficient cell line. CellTiter Glo viability assay (Promega, Madison, WI) was used to measure cell viability in these cells after compound treatment. This assay includes the data from the Rad54/Ku70 mutant cell line.
Tox21 Assay Protocol Summary:
300 DT40 mutant cells in 5 uL/well were dispensed into white, solid-bottom 1536-well plates using a Multidrop Combi (ThermoFisher Scientific, Waltham, MA) dispenser. After the assay plates were incubated at 37 C/5% CO2 for approximately 0.5 hour, 23 nL of compounds dissolved in DMSO, positive controls or DMSO only was transferred into the assay plate by a pintool work station (Kalypsys, San Diego, CA). The assay plates were incubated at 37 C/5% CO2 for 40 hours. After 5 uL per well of CellTiter-Glo reagent was added into each well of the assay plates, the plates were incubated for 30 min at room temperature and the luminescence intensity of the plates was measured using a ViewLux (PerkinElmer, Shelton, CT) plate reader.
% is set by controls: 0 for no effect and ±100 for the full control effect; potency is the fitted concentration of half-maximal effect; tags give direction and shape of the fitted curve.

SMILES | Potency | activity change, negative = cytotoxicity
COC(=O)c1ccccc1N | inactive | –
CN(C)C(=S)S | inconclusive: 70 µM [cytotoxic, single point] | –
N#Cc1c(Cl)c(Cl)c(Cl)c(C#N)c1Cl | active: 268 nM and active: 154 nM | –
C=CC1(C)OC(=O)N(c2cc(Cl)cc(Cl)c2)C1=O (stereo not given) | inconclusive: 68.2 µM [cytotoxic, single point] and active: 61.1 µM | –
CCC(C)c1cccc(C(C)CC)c1O (stereo not given) | inconclusive: 30.6 µM [cytotoxic, partial curve, poor fit] | –
CC(C)(c1ccccc1)c1ccc(O)cc1 | inconclusive: 68 µM [cytotoxic, single point] | –
CC(C)=CC1C(C(=O)OC(C#N)c2cccc(Oc3ccccc3)c2)C1(C)C (stereo not given) | inactive | –
O=[N+]([O-])c1ccc(O)c([N+](=O)[O-])c1 | inconclusive: 68.9 µM [cytotoxic, single point] | –
Clc1nc(Cl)nc(Cl)n1 | inactive and active: 13.7 µM | –
c1csc(-c2ccc(-c3cccs3)s2)c1 | inconclusive: 48.6 µM [cytotoxic, partial curve] | –
Cc1ccc(OP(=O)(Oc2ccc(C)cc2)Oc2ccc(C)cc2)cc1 | active: 43.2 µM and active: 48.6 µM | –
CC(C)(c1cc(Cl)c(O)c(Cl)c1)c1cc(Cl)c(O)c(Cl)c1 | inconclusive: 77 µM [cytotoxic, single point] | –
Cc1cc(C)c(C(=O)P(=O)(C(=O)c2c(C)cc(C)cc2C)c2ccccc2)c(C)c1 | inactive | –
C[C@]12CC[C@@H]3c4ccc(OC(=O)N(CCCl)CCCl)cc4CC[C@H]3[C@@H]1CC[C@@H]2O | inconclusive: 33.5 µM [cytotoxic, single point] | –
COC(=O)NC(=S)Nc1ccccc1NC(=S)NC(=O)OC | inconclusive: 68.6 µM [cytotoxic, single point] | –
O=CC(Br)(Br)Br | inconclusive: 27.2 µM [cytotoxic, single point] | –
CN1CCc2cc(Cl)c(O)cc2[C@H]2c3ccccc3CC[C@@H]21 | inconclusive: 33.5 µM [cytotoxic, single point] | –
O=C1C(Cl)=C(Cl)C(=O)c2ccccc21 | active: 2.18 µM and active: 545 nM | –
O=C1C(I)=CC(=C(c2cc(I)c(O)c(I)c2)c2ccccc2C(=O)O)C=C1I | inconclusive: 33.5 µM [cytotoxic, single point] | –
Clc1ccc(C(c2ccc(Cl)cc2)C(Cl)(Cl)Cl)cc1 | inconclusive: 27.5 µM [cytotoxic, partial curve, poor fit] | –

SMILES | Potency | activity change, negative = cytotoxicity
CCOP(=S)(OCC)O/N=C(\C#N)c1ccccc1 | inconclusive: 68.6 µM [cytotoxic, single point] | –
[F][Sn]([c]1ccccc1)([c]1ccccc1)[c]1ccccc1 | active: 0.306 µM | –
Cc1c(COC(=O)[C@@H]2[C@H](/C=C(\Cl)C(F)(F)F)C2(C)C)cccc1-c1ccccc1 | – | inconclusive: -75.3%
CC(C)c1cccc(C(C)C)c1O | inconclusive: 37.6 µM [cytotoxic, partial curve, poor fit] | –
CCC(C)(C)C(=O)OC1=C(c2ccc(Cl)cc2Cl)C(=O)OC12CCCCC2 | inconclusive: 68.6 µM [cytotoxic, single point] | –
Nc1ccccc1C(=O)OCCc1ccccc1 | inconclusive: 68.9 µM [cytotoxic, single point] | –
Fc1ccc(C(OCCN2CCN(CCCc3ccccc3)CC2)c2ccc(F)cc2)cc1 | active: 3.76 µM | –
CCC(C)c1ccc(O)cc1 (stereo not given) | active: 43.3 µM | –
CCCCCCCCOC(=O)c1ccccc1C(=O)OCCCCCCCC | inconclusive: 68.6 µM [cytotoxic, partial curve, poor fit] | –
CC1(C)CON(Cc2ccccc2Cl)C1=O | inconclusive: 68.6 µM [cytotoxic, single point] | –
CCOP(=O)(OCC)Oc1nc(Cl)c(Cl)cc1Cl | active: 60.8 µM | –
CC(C)(C)CC(C)(C)c1ccc(O)cc1 | inconclusive: 23.7 µM [cytotoxic, partial curve] | –
CCCC[n+]1cccc(C)c1 | inconclusive: 68.4 µM [cytotoxic, single point] | –
CSc1nnc(C(C)(C)C)c(=O)n1N | inactive | –
OCCN(CCO)CCO | inactive | –
CCOC(=O)[C@]1(c2ccccc2)Oc2ccccc2[C@@H]1N | active: 24.3 µM | –
N#CC(Cl)Cl | inconclusive: 74.9 µM [cytotoxic, single point] | –
NNC(=S)NN | inconclusive: 70.5 µM [cytotoxic, single point] | –
Clc1ccccc1-c1ccccc1Cl | inactive | –
CNC(C)Cc1ccc2c(c1)OCO2 (stereo not given) | inconclusive: 66.9 µM [cytotoxic, partial curve, poor fit] | –
